Experimental data published in publication PMC4336329 (PLoS ONE, 2015).
Screen size: about 310,000 compounds; about 14,000 (4.5%) showed an effect of 50% or more. The effect is printed as a negative number. This is one part of the list.

target: human ether-à-go-go-related gene (hERG) potassium channel (human, UniProt Q12809); experiment: primary screen, population patch clamp on CHO cells stably expressing hERG
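Further: peak tail current of the secondary pulse compared with the same well before compound.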

Chain of human ether-à-go-go-related gene (hERG) potassium channel (Q12809 whole entry, looked up): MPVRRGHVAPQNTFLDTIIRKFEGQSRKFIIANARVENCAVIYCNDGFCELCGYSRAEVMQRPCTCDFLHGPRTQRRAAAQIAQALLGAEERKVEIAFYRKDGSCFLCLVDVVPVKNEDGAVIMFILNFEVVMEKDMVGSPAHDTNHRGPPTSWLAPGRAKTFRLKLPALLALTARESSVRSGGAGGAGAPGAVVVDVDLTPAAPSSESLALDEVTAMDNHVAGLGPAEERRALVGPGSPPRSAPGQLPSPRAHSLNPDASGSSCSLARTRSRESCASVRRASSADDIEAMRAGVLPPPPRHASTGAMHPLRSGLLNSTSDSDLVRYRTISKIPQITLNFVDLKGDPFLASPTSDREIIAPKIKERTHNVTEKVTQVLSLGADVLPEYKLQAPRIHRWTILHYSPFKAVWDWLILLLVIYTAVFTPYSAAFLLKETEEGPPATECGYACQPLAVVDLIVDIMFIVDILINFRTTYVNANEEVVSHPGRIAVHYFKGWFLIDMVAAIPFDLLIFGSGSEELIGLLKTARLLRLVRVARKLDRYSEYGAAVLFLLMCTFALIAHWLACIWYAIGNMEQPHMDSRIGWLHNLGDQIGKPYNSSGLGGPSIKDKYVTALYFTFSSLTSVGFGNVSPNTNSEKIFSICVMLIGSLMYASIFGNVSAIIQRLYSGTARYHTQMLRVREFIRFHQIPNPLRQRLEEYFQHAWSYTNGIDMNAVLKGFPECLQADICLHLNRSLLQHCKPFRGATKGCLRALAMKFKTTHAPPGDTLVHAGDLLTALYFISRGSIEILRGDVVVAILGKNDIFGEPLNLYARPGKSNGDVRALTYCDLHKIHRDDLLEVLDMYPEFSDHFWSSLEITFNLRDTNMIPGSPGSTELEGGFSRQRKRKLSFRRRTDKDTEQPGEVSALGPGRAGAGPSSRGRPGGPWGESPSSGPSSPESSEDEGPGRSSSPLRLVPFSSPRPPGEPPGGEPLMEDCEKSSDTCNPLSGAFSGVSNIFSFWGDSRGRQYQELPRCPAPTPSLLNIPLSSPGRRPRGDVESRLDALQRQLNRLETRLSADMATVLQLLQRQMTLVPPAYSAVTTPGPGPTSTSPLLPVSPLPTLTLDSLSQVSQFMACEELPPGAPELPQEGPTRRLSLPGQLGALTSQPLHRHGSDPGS

SMILES	hERG current change (%, negative = inhibition) at 10uM [%]
CC1CCN(C(=O)CSc2nc3ncccc3[nH]2)CC1	5.84
CCC(=O)n1nc(-c2ccc(Cl)cc2)nc1N	3.71
Nc1[nH]ncc1-c1ccc(Cl)cc1	27.9
O=C(CCn1c(=O)c2sccc2n(CC(=O)OCc2ccccc2)c1=O)NCc1ccccc1	5.45
COc1ccc(/C=N/N2C(=O)C3C4C=CC(C4)C3C2=O)cc1[N+](=O)[O-] (centres unmarked)	-6.14
CC1CCCCN1C(=O)CCn1c(=S)oc2ccccc21 (centres unmarked)	1.36
CC1CCN(C(=O)/C=C/c2ccc(C(C)(C)C)cc2)CC1	-19.3
C=C(C)Cn1c(N2CC(C)CC(C)C2)nc2c1c(=O)[nH]c(=O)n2C (centres unmarked)	2.46
CCOc1cc(NC(=S)NCCCN(C)C)c(OCC)cc1NC(=O)C1CC1	28.8
Cc1ccc(/C=N/c2sc3c(c2C#N)CCC3)s1	-8.29
O=c1[nH]cc(-c2ccccc2)c(=O)[nH]1	26.7
S=C(NCCc1ccccc1)NC1CCC(NC(=S)NCCc2ccccc2)CC1 (centres unmarked)	17.1
CC(=O)c1ccc(NC(=S)N2CC(C)CC(C)C2)cc1 (centres unmarked)	-11.4
Oc1ccc(/C=N/n2c(COc3ccccc3)n[nH]c2=S)cc1O	23
O=C(N/N=C/C(Cl)=C/c1ccccc1)c1cnccn1	-15
O=C(Nc1ccc(S(=O)(=O)Nc2nccs2)cc1)c1ccccc1OC(F)F	13.4
COc1ccc(Cn2cccc(NC(=O)Nc3ccc(C#N)cc3)c2=O)cc1	4.81
COc1ccc(C(C)=O)cc1COC(=O)c1ccc(C)c(S(=O)(=O)N2CCOCC2)c1	-19.8
O=C(COC(=O)c1cccnc1)Nc1cccc2ccccc12	12.7

SMILES	hERG current change (%, negative = inhibition) at 10uM [%]
COc1ccc(-c2nnc(SC(C)C(=O)Nc3ccc4c(c3)OCCO4)o2)cc1 (centres unmarked)	-10.3
C=CCCCCCCCCc1nc(=S)[nH][nH]1	9.32
COc1ccccc1Cn1c(=O)c2ccccc2n2c(SCc3csc(C)n3)nnc12	-6.34
CCC1C(=O)NCCN1C(=O)CCc1nnc(CCc2ccc(OC)cc2)o1 (centres unmarked)	21.9
NC(=O)c1c(NC(=O)Cn2nc(C(=O)O)c3ccccc3c2=O)sc2c1CCCC2	6.32
O=c1[nH]nc(-c2ccc(F)cc2)cc1Cc1ccc(F)cc1	-12
O=C(c1ccc(S(=O)(=O)N2CCCCC2)cc1)N1CCc2ccccc2C1	-20.5
Cn1c(N)c(C(=O)COC(=O)CSc2ccc(Cl)cc2)c(=O)n(C)c1=O	-61.2
CCN(C(=O)c1cc2cc3ccc(C)cc3nc2o1)c1ccc(OC)cc1	-4.02
Cc1cccc(Oc2c(C=O)c3ccccc3n2C)c1	-14.2
Cc1ccc(C(C)C)c(OCc2ccc(-c3nnco3)cc2)c1	-14.1
CN1CCc2c(sc(NC(=O)CS(=O)(=O)c3ccccc3)c2C(N)=O)C1.Cl	-23.4
Cc1c(Cl)cccc1N1C(=O)CC(N(O)c2ccccc2)C1=O (centres unmarked)	12.1
CC1CCc2[nH]c3ccc(C(=O)N(C)CC(=O)Nc4ccccc4C(F)(F)F)cc3c2C1 (centres unmarked)	4.13
COCCN1C(=O)N(c2cccc(C)c2)C(=O)C1CC(=O)Nc1ccc(OC)cc1 (centres unmarked)	11
CNC(=S)N(Cc1cc2cc(OC)c(OC)cc2[nH]c1=O)C1CCCC1	20.7
N/C(=N\N=C\c1ccco1)SC1CC(=O)N(c2ccccc2)C1=O (centres unmarked)	17.1
CC1(C(=O)NCC2CCCO2)Oc2cccnc2NC1=O (centres unmarked)	5.86
COC(=O)CN(C#N)c1nc(N(C)C)nc(N(C)C)n1	-3.32

SMILES	hERG current change (%, negative = inhibition) at 10uM [%]
Nc1c(N(Cc2ccccc2)C(=O)COc2cccc(Cl)c2)c(=O)[nH]c(=O)n1Cc1ccccc1	-10.4
O=C(NCCCN1CCCC1=O)c1ccc(NS(=O)(=O)c2ccc(F)cc2)cc1	-13.9
Cc1csc(NC(=O)CSc2nsc(SCC(=O)Nc3nc(C)cs3)c2C#N)n1	7.77
CCN(CC)CCNC(=O)c1cc(Nc2ccc(OC)c(OC)c2)nc2ccccc12	-23.8
O=C(c1cccs1)n1nc(NCc2ccccc2)nc1NCc1ccccc1	10.5
CCOC(=O)C1CCN(S(=O)(=O)c2ccc3c(c2)NC(=O)C(C)C(=O)N3)CC1 (centres unmarked)	13.4
CC(=O)c1c(C(C)=O)c(C)n(Cc2ccc3c(c2)OCO3)c1C	-9.41
CC1(NC(=O)CN2CCN(c3cnn(-c4ccccc4)c(=O)c3Cl)CC2)CCS(=O)(=O)C1 (centres unmarked)	-39.5
CC(=O)CCc1oc2ccc(NC(C)=O)cc2c1-c1ccc(C)o1	-20.9
O=C(CCC(=O)OCC(F)(F)C(F)F)Nc1ccccc1F	37.7
CCN1C(=O)c2cccc3c(S(=O)(=O)Nc4ccccc4)ccc1c23	-2.82
CC(C)CN(C(=O)COC(=O)C12CC3CC(CC(C3)C1)C2)c1c(N)n(Cc2ccccc2)c(=O)[nH]c1=O	8.98
O=C(Nc1ccccc1)c1ccc(-c2ccccc2C(F)(F)F)o1	-11.8
O=C(NCCO)c1ccc2c3n(nc2c1)-c1ccc(Cl)cc1CO3	-12.7
CCC(c1nnc(SCC(=O)Nc2ccc(S(N)(=O)=O)cc2)n1Cc1ccccc1)N(C)C (centres unmarked)	19.9
O=[N+]([O-])c1cc(S(=O)(=O)N2CCCC2)ccc1SCCO	-23.6
Cc1cc(-n2c(C)cc(C(=O)CSc3nnnn3-c3ccc(Cl)cc3)c2C)no1	-3.04
CCOP(=O)(OCC)c1nc(-c2cccc3ccccc23)oc1N1CCOCC1	-17.8
